Experimental data reported in the supplement of paper PMC8728848.
The list shows a part of the results.

Key:
Assay in all cases: glycan array binding signal (z-score within array); higher = stronger binding
Details in all cases: glycan notation: IUPAC condensed, linker removed
[1] = biological target: GalNAc3S(b1-4)GlcNAc3S
Summary of the method: (§1)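 Columns mapping to the same glycan were averaged after glycan names were converted to IUPAC-condensed notation. The data come from 3228 arrays in the Consortium for Functional Glycomics database, limited to those with an available protein sequence. Binding is reported as a within-array Z-score averaged across arrays of one protein sequence and across linkers.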

[2] = biological target: GalNAc3S(b1-4)[Fuc(a1-3)]GlcNAc
Summary of the method: as §1

[3] = biological target: GalNAc4S6S(b1-4)GlcNAc
Summary of the method: as §1

[4] = biological target: GalNAc6S(b1-4)GlcNAc
Summary of the method: as §1

[5] = biological target: Glc(a1-4)Glc
Summary of the method: as §1

[6] = biological target: Glc(a1-4)Glc(a1-4)Glc(a1-4)Glc
Summary of the method: as §1

[7] = biological target: Glc(a1-6)Glc(a1-6)Glc
Summary of the method: as §1

[8] = biological target: Glc(a1-6)Glc(a1-6)Glc(a1-6)Glc
Summary of the method: as §1

[9] = biological target: Glc(b1-4)Glc
Summary of the method: as §1

[10] = biological target: Glc(b1-6)Glc
Summary of the method: as §1

[11] = biological target: GlcA(b1-3)Gal
Summary of the method: as §1

[12] = biological target: GlcA(b1-3)GlcNAc
Summary of the method: as §1

[13] = biological target: GlcA(b1-6)Gal
Summary of the method: as §1

[14] = biological target: GlcA3S(b1-3)Gal(b1-4)GlcNAc(b1-2)Man
Summary of the method: as §1

[15] = biological target: GlcA3S(b1-3)Gal(b1-4)GlcNAc(b1-3)Gal(b1-4)Glc
Summary of the method: as §1

[16] = biological target: GlcNAc(a1-3)Gal(b1-4)GlcNAc
Summary of the method: as §1

[17] = biological target: GlcNAc(a1-4)Gal(b1-3)GlcNAc
Summary of the method: as §1

[18] = biological target: GlcNAc(a1-4)Gal(b1-4)GalNAc
Summary of the method: as §1

[19] = biological target: GlcNAc(a1-4)Gal(b1-4)GlcNAc
Summary of the method: as §1

[20] = biological target: GlcNAc(a1-4)Gal(b1-4)GlcNAc(b1-3)Gal(b1-4)Glc
Summary of the method: as §1

[21] = biological target: GlcNAc(a1-4)Gal(b1-4)GlcNAc(b1-3)Gal(b1-4)GlcNAc
Summary of the method: as §1

[22] = biological target: GlcNAc(a1-4)Gal(b1-4)GlcNAc(b1-3)Gal(b1-4)GlcNAc(b1-3)Gal(b1-4)GlcNAc
Summary of the method: as §1

[23] = biological target: GlcNAc(a1-4)Gal(b1-4)GlcNAc(b1-3)Gal(b1-4)[Fuc(a1-3)]GlcNAc(b1-3)Gal(b1-4)[Fuc(a1-3)]GlcNAc
Summary of the method: as §1

[24] = biological target: GlcNAc(a1-6)Gal(b1-4)GlcNAc
Summary of the method: as §1

[25] = biological target: GlcNAc(b1-2)Gal(b1-3)GalNAc
Summary of the method: as §1

[26] = biological target: GlcNAc(b1-2)Gal(b1-3)GlcNAc
Summary of the method: as §1

[27] = biological target: GlcNAc(b1-2)Man(a1-3)[GlcNAc(b1-2)Man(a1-6)]Man(b1-4)GlcNAc(b1-4)GlcNAc
Summary of the method: as §1

[28] = biological target: GlcNAc(b1-2)Man(a1-3)[GlcNAc(b1-2)Man(a1-6)]Man(b1-4)GlcNAc(b1-4)[Fuc(a1-6)]GlcNAc
Summary of the method: as §1

[29] = biological target: GlcNAc(b1-2)Man(a1-3)[GlcNAc(b1-4)][GlcNAc(b1-2)Man(a1-6)]Man(b1-4)GlcNAc(b1-4)GlcNAc
Summary of the method: as §1

[30] = biological target: GlcNAc(b1-2)Man(a1-3)[GlcNAc(b1-4)][GlcNAc(b1-2)Man(a1-6)]Man(b1-4)GlcNAc(b1-4)[Fuc(a1-6)]GlcNAc
Summary of the method: as §1

[31] = biological target: GlcNAc(b1-2)[GlcNAc(b1-4)]Man(a1-3)[GlcNAc(b1-2)Man(a1-6)]Man(b1-4)GlcNAc(b1-4)GlcNAc
Summary of the method: as §1

[32] = biological target: GlcNAc(b1-2)[GlcNAc(b1-4)]Man(a1-3)[GlcNAc(b1-4)][GlcNAc(b1-2)Man(a1-6)]Man(b1-4)GlcNAc(b1-4)GlcNAc
Summary of the method: as §1

[33] = biological target: GlcNAc(b1-2)[GlcNAc(b1-4)]Man(a1-3)[GlcNAc(b1-4)][GlcNAc(b1-2)[GlcNAc(b1-6)]Man(a1-6)]Man(b1-4)GlcNAc(b1-4)GlcNAc
Summary of the method: as §1

[34] = biological target: GlcNAc(b1-2)[GlcNAc(b1-4)]Man(a1-3)[GlcNAc(b1-4)][GlcNAc(b1-2)[GlcNAc(b1-6)]Man(a1-6)]Man(b1-4)GlcNAc(b1-4)[Fuc(a1-6)]GlcNAc
Summary of the method: as §1

[35] = biological target: GlcNAc(b1-2)[GlcNAc(b1-6)]Man(a1-6)[GlcNAc(b1-2)Man(a1-3)]Man(b1-4)GlcNAc(b1-4)GlcNAc
Summary of the method: as §1

[36] = biological target: GlcNAc(b1-2)[GlcNAc(b1-6)]Man(a1-6)[GlcNAc(b1-2)Man(a1-3)]Man(b1-4)GlcNAc(b1-4)[Fuc(a1-6)]GlcNAc
Summary of the method: as §1

[37] = biological target: GlcNAc(b1-2)[GlcNAc(b1-6)]Man(a1-6)[GlcNAc(b1-4)][GlcNAc(b1-2)Man(a1-3)]Man(b1-4)GlcNAc(b1-4)GlcNAc
Summary of the method: as §1

[38] = biological target: GlcNAc(b1-3)Fuc
Summary of the method: as §1

[39] = biological target: GlcNAc(b1-3)Gal
Summary of the method: as §1

[40] = biological target: GlcNAc(b1-3)Gal(b1-3)GalNAc
Summary of the method: as §1

[41] = biological target: GlcNAc(b1-3)Gal(b1-4)Glc
Summary of the method: as §1

[42] = biological target: GlcNAc(b1-3)Gal(b1-4)GlcNAc
Summary of the method: as §1

[43] = biological target: GlcNAc(b1-3)Gal(b1-4)GlcNAc(b1-2)Man(a1-3)[GlcNAc(b1-3)Gal(b1-4)GlcNAc(b1-2)Man(a1-6)]Man(b1-4)GlcNAc(b1-4)GlcNAc
Summary of the method: as §1

[44] = biological target: GlcNAc(b1-3)Gal(b1-4)GlcNAc(b1-2)Man(a1-3)[GlcNAc(b1-3)Gal(b1-4)GlcNAc(b1-2)Man(a1-6)]Man(b1-4)GlcNAc(b1-4)[Fuc(a1-6)]GlcNAc
Summary of the method: as §1

[45] = biological target: GlcNAc(b1-3)Gal(b1-4)GlcNAc(b1-2)[GlcNAc(b1-3)Gal(b1-4)GlcNAc(b1-6)]Man(a1-6)[GlcNAc(b1-3)Gal(b1-4)GlcNAc(b1-2)Man(a1-3)]Man(b1-4)GlcNAc(b1-4)GlcNAc
Summary of the method: as §1

B1: OVGAL11 (Ovis aries), AAF64320 (protein)
chain: MDSLPNPYLQSVSLTVCYMVKIKANLLSAFGKNPELQVDFGTGTGQGGNIPFRFWYCDGMVVMNTFTDGSWQKEEKVLTDAFVPGQPFELQFLVLEKEYQVFVKNKPICQFAHRLPLQSVKMLDVRGDIVLTSVDTL
glycan array binding signal (z-score) [1]: -0.092 | glycan array binding signal (z-score) [2]: -0.109 | glycan array binding signal (z-score) [3]: -0.069 | glycan array binding signal (z-score) [4]: -0.057 | glycan array binding signal (z-score) [5]: 0.241 | glycan array binding signal (z-score) [6]: -0.094 | glycan array binding signal (z-score) [7]: -0.089 | glycan array binding signal (z-score) [8]: 0.012 | glycan array binding signal (z-score) [9]: -0.12 | glycan array binding signal (z-score) [10]: 0.568 | glycan array binding signal (z-score) [11]: -0.077 | glycan array binding signal (z-score) [12]: -0.12 | glycan array binding signal (z-score) [13]: 0.376 | glycan array binding signal (z-score) [14]: -0.095 | glycan array binding signal (z-score) [15]: -0.081 | glycan array binding signal (z-score) [16]: -0.18 | glycan array binding signal (z-score) [17]: -0.114 | glycan array binding signal (z-score) [18]: -0.091 | glycan array binding signal (z-score) [19]: -0.112 | glycan array binding signal (z-score) [20]: -0.114 | glycan array binding signal (z-score) [21]: -0.089 | glycan array binding signal (z-score) [22]: -0.09 | glycan array binding signal (z-score) [23]: -0.096 | glycan array binding signal (z-score) [24]: -0.208 | glycan array binding signal (z-score) [25]: -0.088 | glycan array binding signal (z-score) [26]: -0.199 | glycan array binding signal (z-score) [27]: -0.107 | glycan array binding signal (z-score) [28]: -0.067 | glycan array binding signal (z-score) [29]: -0.102 | glycan array binding signal (z-score) [30]: -0.083 | glycan array binding signal (z-score) [31]: -0.102 | glycan array binding signal (z-score) [32]: -0.05 | glycan array binding signal (z-score) [33]: -0.127 | glycan array binding signal (z-score) [34]: -0.055 | glycan array binding signal (z-score) [35]: -0.092 | glycan array binding signal (z-score) [36]: -0.102 | glycan array binding signal (z-score) [37]: -0.09 | glycan array binding signal (z-score) [38]: -0.084 | glycan array binding signal (z-score) [39]: -0.248 | glycan array binding signal (z-score) [40]: -0.127 | glycan array binding signal (z-score) [41]: -0.08 | glycan array binding signal (z-score) [42]: -0.346 | glycan array binding signal (z-score) [43]: -0.084 | glycan array binding signal (z-score) [44]: -0.094 | glycan array binding signal (z-score) [45]: -0.045
